Test in all cases: glycan array binding signal (z-score within array); higher = stronger binding
What all share (conditions): glycan notation: IUPAC condensed, linker removed

One assay deals with Neu5Ac(a2-6)GalNAc. An outline of the steps: (§1)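 From the Consortium for Functional Glycomics database, 3228 arrays were curated, keeping only those whose protein sequence was available. Binding is given as a within-array Z-score averaged across arrays sharing a protein sequence and across linkers. Negative Z-scores can be read as non-binding.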
Assay [1] concerns the target Neu5Ac(a2-6)GalNAc(b1-4)GlcNAc. In short, it runs like this:
as §1

For assay [2], the target named is Neu5Ac(a2-6)GlcNAc(b1-4)GlcNAc. In short, it runs like this: as §1
Assay [3] concerns the target Neu5Ac(a2-6)GlcNAc(b1-4)GlcNAc(b1-4)GlcNAc. An outline of the steps: as §1
The next assay deals with Neu5Ac(a2-8)Neu5Ac. An outline of the steps: as §1
For assay [4], the target named is Neu5Ac(a2-8)Neu5Ac(a2-3)Gal(b1-4)Glc. In short, it runs like this: as §1
Assay [5] deals with Neu5Ac(a2-8)Neu5Ac(a2-3)[GalNAc(b1-4)]Gal(b1-4)Glc. An outline of the steps: as §1
For assay [6], the target named is Neu5Ac(a2-8)Neu5Ac(a2-8)Neu5Ac. An outline of the steps: as §1
Assay [7] deals with Neu5Ac(a2-8)Neu5Ac(a2-8)Neu5Ac(a2-3)Gal(b1-4)Glc. An outline of the steps:
as §1

The target in assay [8] is Neu5Ac(a2-8)Neu5Ac(a2-8)Neu5Ac(a2-3)[GalNAc(b1-4)]Gal(b1-4)Glc. In short, it runs like this:
as §1

For assay [9], the target named is Neu5Ac(a2-8)Neu5Ac(a2-8)Neu5Ac(a2-8)Neu5Ac(a2-3)[GalNAc(b1-4)]Gal(b1-4)Glc. In short, it runs like this:
as §1

In assay [10] the target is Neu5Ac(b2-6)Gal(b1-4)GlcNAc. In short, it runs like this: as §1
Another assay addresses Neu5Ac(b2-6)GalNAc. In short, it runs like this: as §1
The target of assay [11] is Neu5Ac9Ac(a2-3)Gal(b1-3)GlcNAc. In short, it runs like this:
as §1

Assay [12] concerns the target Neu5Ac9Ac(a2-3)Gal(b1-4)GlcNAc. In short, it runs like this: as §1
Assay [13] addresses Neu5Ac9Ac(a2-6)Gal(b1-4)GlcNAc. An outline of the steps: as §1
For assay [14], the target named is Neu5Gc(a2-3)Gal(b1-3)GlcNAc. In short, it runs like this: as §1
The target in assay [15] is Neu5Gc(a2-3)Gal(b1-3)[Fuc(a1-4)]GlcNAc. In short, it runs like this: as §1
In a further assay the target is Neu5Gc(a2-3)Gal(b1-4)Glc. An outline of the steps: as §1
The target of assay [16] is Neu5Gc(a2-3)Gal(b1-4)GlcNAc. In short, it runs like this:
as §1

The target of assay [17] is Neu5Gc(a2-3)Gal(b1-4)[Fuc(a1-3)]GlcNAc. An outline of the steps:
as §1

Assay [18] concerns the target Neu5Gc(a2-6)Gal(b1-4)GlcNAc. An outline of the steps: as §1
A further assay has as its target Neu5Gc(a2-6)GalNAc. An outline of the steps: as §1
Assay [19] concerns the target Neu5Gc(b2-6)Gal(b1-4)GlcNAc. In short, it runs like this: as §1

This is one part of the list.

B1: CCL2 (Coprinopsis cinerea), B3GA02 (protein)
chain: MDSPAVTLSAGNYIIYNRVLSPRGEKLALTYPGRQRTPVTVSPLDGSSEQAWILRSYDSNSNTWTISPVGSPNSQIGWGAGNVPVVLPPNNYVWTLTLTSGGYNIQDGKRTVSWSLNNATAGEEVSIGADATFSGRWVIEKV
On to B1, for which the “glycan array binding signal (z-score)” value in the assay with Neu5Ac(a2-6)GalNAc is -0.277; in assay [1], -0.277; in assay [2], -0.288; in assay [3], -0.293; with Neu5Ac(a2-8)Neu5Ac, -0.286; in assay [4], -0.275. Besides, the “glycan array binding signal (z-score)” value in assay [5] is -0.27; in assay [6] it was -0.276; in assay [7], -0.278; in assay [8], -0.252; in [9], -0.286; in assay [10] it was -0.233. Further, the “glycan array binding signal (z-score)” value was -0.288 with Neu5Ac(b2-6)GalNAc; -0.294 in [11]; -0.296 in assay [12]; -0.274 in [13]; -0.282 in [14]; -0.279 in assay [15]. Besides, the “glycan array binding signal (z-score)” value is -0.285 with Neu5Gc(a2-3)Gal(b1-4)Glc; -0.298 in assay [16]; 2.72 in assay [17]; -0.279 in [18]; -0.282 in the assay with Neu5Gc(a2-6)GalNAc; -0.282 in [19].

Values taken from the supplement of paper PMC8728848.
